Experimental data as given in the supplement of paper PMC10126150.
Sequences with one replicate were seen in a single cluster, so their values are uncertain.

Test system: ATP
Test: switch fluorescence ratio, 500 uM ATP over buffer (Cy3 cluster intensity, sum of 5 cycles each) (fold (ratio)); higher = stronger signal-on switching upon ATP binding; sequences stand for … in TCGTCGGCAGCGTCAGATGTGTATAAGAGACAGTTTTTTTTTTTTTTTTTTTTTTTTT…TC
Settings: aptamer strand: ATP DNA aptamer (quencher-CACCTGGGGGAGTATTGCGGAGGAAGG + anchor), 100 nM annealed; ATP concentration: 500 uM; one replicate
Summary of the method: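 Imaging in selection buffer was followed by imaging after 15 min with 500 uM ATP at 22 °C, for Cy3-labelled switching-strand clusters annealed to 100 nM quencher-labelled ATP aptamer on a modified Illumina MiSeq flow-cell. Five of these buffer/ATP cycles ran, separated by NaOH stripping and re-annealing. The fluorescence ratio per cluster is summed target-cycle over summed buffer-cycle Cy3 intensity, averaged per switch-domain sequence; clusters outside 100-1000 RFU were removed.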
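Note: ATP exposure 15 min at 22 °C before imaging.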

| Sequence | switch fluorescence ratio |
| --- | --- |
| GAAATGGAGA | 1.01 |
| GAAATGTGGG | 0.983 |
| GAAATGTTTG | 1.05 |
| GAAATTATGT | 1 |
| GAAATTGAGC | 1.02 |
| GAAATTTATT | 1.06 |
| GAAATTTGAT | 0.986 |
| GAAATTTTAG | 0.993 |
| GAACAACC | 1.04 |
| GAACAAGATT | 1.08 |
| GAACACGATT | 0.998 |
| GAACAGCTAC | 1.92 |
| GAACATCGCC | 0.996 |
| GAACCAGCCA | 1.07 |
| GAACCCGGGC | 1.01 |
| GAACCCTCGC | 1.19 |
| GAACCGTGCA | 1.1 |
| GAACCTTAAG | 0.974 |
| GAACGATCAC | 1.4 |
| GAACGATGGT | 0.949 |
| GAACGGCAGA | 0.968 |
| GAACGTATAA | 1.26 |
| GAACTAATTT | 0.983 |
| GAACTAGTCT | 1.05 |
| GAACTATAAC | 1.05 |

| Sequence | switch fluorescence ratio |
| --- | --- |
| GAACTATTGC | 1 |
| GAACTCCGTG | 1.21 |
| GAACTCGAAG | 1.06 |
| GAACTGCTTC | 0.986 |
| GAACTTACGC | 1.23 |
| GAACTTGGCA | 1.05 |
| GAAGAACCGC | 1.15 |
| GAAGAAGATG | 0.976 |
| GAAGACATGC | 1.05 |
| GAAGACTCTG | 1.01 |
| GAAGAGCCGA | 0.966 |
| GAAGAGGGAA | 0.975 |
| GAAGAGGGT | 0.974 |
| GAAGATCTGT | 0.989 |
| GAAGATTCAT | 0.994 |
| GAAGCACGTT | 1.01 |
| GAAGCAGTAG | 1.81 |
| GAAGCAGTT | 1.04 |
| GAAGCCCGTT | 0.995 |
| GAAGCTTCTG | 0.977 |
| GAAGCTTTGG | 0.98 |
| GAAGGACGGT | 0.995 |
| GAAGGACGTC | 1.04 |
| GAAGGAGCTA | 1 |
| GAAGGAGTAG | 1.03 |

| Sequence | switch fluorescence ratio |
| --- | --- |
| GAAGGCTTGG | 1.03 |
| GAAGGGACGC | 1.04 |
| GAAGGGCAA | 1.01 |
| GAAGGGCCGC | 1.11 |
| GAAGGGTAG | 0.995 |
| GAAGGGTCGC | 1 |
| GAAGGGTGG | 0.953 |
| GAAGGTTGTG | 0.96 |
| GAAGTAGAAG | 0.979 |
| GAAGTATTGG | 1.04 |
| GAAGTCAGTA | 1.04 |
| GAAGTCGCTG | 1 |
| GAAGTGGAAA | 0.982 |
| GAAGTGTAGG | 1.04 |
| GAAGTTATTC | 0.999 |
| GAATAAGAAG | 1 |
| GAATACAGG | 1.04 |
| GAATACCATG | 0.989 |
| GAATATAGCG | 0.953 |
| GAATATGCTT | 1.02 |
| GAATATTAAC | 1.03 |
| GAATCCAGGG | 1.16 |
| GAATCCGTGA | 1.34 |
| GAATCGCTAT | 1.05 |
| GAATCGGTT | 1.02 |

| Sequence | switch fluorescence ratio |
| --- | --- |
| GAATCTACCG | 1 |
| GAATCTATGC | 1.04 |
| GAATCTTTGC | 1 |
| GAATGCACGT | 0.983 |
| GAATGCAGGG | 0.959 |
| GAATGCGGAG | 1 |
| GAATGTGAAT | 0.998 |
| GAATGTGTGC | 0.997 |
| GAATGTTCGC | 1.05 |
| GAATGTTCTA | 1.01 |
| GAATTACTGT | 1.08 |
| GAATTACTTT | 1.02 |
| GAATTATTCT | 1.06 |
| GAATTCAGAT | 0.972 |
| GAATTCCTCT | 1.02 |
| GAATTCCTTA | 1.02 |
| GAATTCTATT | 0.994 |
| GAATTGGTGG | 0.974 |
| GAATTGTGCA | 1 |
| GAATTTCAAC | 1.02 |
| GAATTTCG | 1.02 |
| GAATTTGTC | 1.03 |
| GACAACGGGA | 1.09 |
| GACAACTCGC | 1.03 |
| GACAACTTAG | 1.03 |
